From US20250179210A1, “ANTI-CEACAM5 ANTIBODIES AND CONJUGATES AND USES THEREOF” (Merck Patent GmbH, priority 2022, published 2025)

Test system: human patient-derived gastric xenograft model GAPF313
Assay: Gastric PDX mouse model GAPF313
Type: in vivo
Details: interim analysis; ADC1 4 mg/kg or 7 mg/kg Q2W×3, ADC SAR DM4 4.7 mg/kg Q2W×3, i.v.
Description: Anti-tumor efficacy in vivo was evaluated in the human patient-derived gastric xenograft model GAPF313 (Shanghai LideBiotech CO., LTD). Tumor fragments were transplanted subcutaneously into the right flank of six to eight weeks old immunodeficient female mice (NU-Foxn1nu, Charles River). […] Tumor length (L) and width (W) were measured with calipers and tumor volumes were calculated using the formula L×(W^2)/2.
Anti-tumor efficacy of ADC1-M and ADC3-M in comparison to ADC SAR DM4 has been evaluated in the human GC xenograft model GAPF313. The study was performed at Lide Biotech (Shanghai). Six to eight weeks old immunodeficient female mice (Crl: NU-Foxn1nu) were transplanted subcutaneously in the right flank with GAPF313 tumor fragments. When tumors reached a mean volume of 176 mm^3 6 mice/group were treated intravenously every other week (3 cycles) with vehicle (saline solution) or with 4 mg/kg ADC1-M or ADC3-M or 4.7 mg/kg ADC SAR DM4. Tumor length (L) and width (W) were measured with calipers and tumor volumes were calculated using L×W^2/2.

B1: ADC1 (conjugate)
heavy: EVQLQESGPGLVKPSQTLSLTCTVSDGSVSRGGYYLTWIRQHPGKGLEWIGYIYYSGSTYFNPSLRSRVTMSVDTSKNQFSLKLSSVTAADTAVYYCARGIAVAPFDYWGQGTLVTVSSASTKGPSVFPLAPSSKSTSGGTAALGCLVKDYFPEPVTVSWNSGALTSGVHTFPAVLQSSGLYSLSSVVTVPSSSLGTQTYICNVNHKPSNTKVDKRVEPKSCDKTHTCPPCPAPPVAGPSVFLFPPKPKDTLMISRTPEVTCVVVDVSHEDPEVKFNWYVDGVEVHNAKTKPREEQYNSTYRVVSVLTVLHQDWLNGKEYKCKVSNKALPSSIEKTISKAKGQPREPQVYTLPPSREEMTKNQVSLTCLVKGFYPSDIAVEWESNGQPENNYKTTPPVLDSDGSFFLYSKLTVDKSRWQQGNVFSCSVMHEALHNHYTQKSLSLSPG
light: EIVLTQSPATLSVSPGERATLSCRTSQSVRSNLAWYQQKPGQAPRLLIYAASTRATGIPARFSGSGSGTEFTLTISSLQSEDFAVYYCQQYTNWPFTFGPGTKVDIKRTVAAPSVFIFPPSDEQLKSGTASVVCLLNNFYPREAKVQWKVDNALQSGNSQESVTEQDSKDSTYSLSSTLTLSKADYEKHKVYACEVTHQGLSSPVTKSFNRGEC
  anti-tumor efficacy: clear anti-tumor efficacy
